In all, about 310,000 compounds went through this assay and about 2,200 (0.71%) showed an effect of 50% or more. Effects have a minus sign here. The list shows a part of the results.
The compounds below were run against human ether-à-go-go-related gene (hERG) potassium channel (human, UniProt Q12809) (assay: primary screen, population patch clamp on CHO cells stably expressing hERG).
human ether-à-go-go-related gene (hERG) potassium channel, sequence (Q12809 whole entry, looked up): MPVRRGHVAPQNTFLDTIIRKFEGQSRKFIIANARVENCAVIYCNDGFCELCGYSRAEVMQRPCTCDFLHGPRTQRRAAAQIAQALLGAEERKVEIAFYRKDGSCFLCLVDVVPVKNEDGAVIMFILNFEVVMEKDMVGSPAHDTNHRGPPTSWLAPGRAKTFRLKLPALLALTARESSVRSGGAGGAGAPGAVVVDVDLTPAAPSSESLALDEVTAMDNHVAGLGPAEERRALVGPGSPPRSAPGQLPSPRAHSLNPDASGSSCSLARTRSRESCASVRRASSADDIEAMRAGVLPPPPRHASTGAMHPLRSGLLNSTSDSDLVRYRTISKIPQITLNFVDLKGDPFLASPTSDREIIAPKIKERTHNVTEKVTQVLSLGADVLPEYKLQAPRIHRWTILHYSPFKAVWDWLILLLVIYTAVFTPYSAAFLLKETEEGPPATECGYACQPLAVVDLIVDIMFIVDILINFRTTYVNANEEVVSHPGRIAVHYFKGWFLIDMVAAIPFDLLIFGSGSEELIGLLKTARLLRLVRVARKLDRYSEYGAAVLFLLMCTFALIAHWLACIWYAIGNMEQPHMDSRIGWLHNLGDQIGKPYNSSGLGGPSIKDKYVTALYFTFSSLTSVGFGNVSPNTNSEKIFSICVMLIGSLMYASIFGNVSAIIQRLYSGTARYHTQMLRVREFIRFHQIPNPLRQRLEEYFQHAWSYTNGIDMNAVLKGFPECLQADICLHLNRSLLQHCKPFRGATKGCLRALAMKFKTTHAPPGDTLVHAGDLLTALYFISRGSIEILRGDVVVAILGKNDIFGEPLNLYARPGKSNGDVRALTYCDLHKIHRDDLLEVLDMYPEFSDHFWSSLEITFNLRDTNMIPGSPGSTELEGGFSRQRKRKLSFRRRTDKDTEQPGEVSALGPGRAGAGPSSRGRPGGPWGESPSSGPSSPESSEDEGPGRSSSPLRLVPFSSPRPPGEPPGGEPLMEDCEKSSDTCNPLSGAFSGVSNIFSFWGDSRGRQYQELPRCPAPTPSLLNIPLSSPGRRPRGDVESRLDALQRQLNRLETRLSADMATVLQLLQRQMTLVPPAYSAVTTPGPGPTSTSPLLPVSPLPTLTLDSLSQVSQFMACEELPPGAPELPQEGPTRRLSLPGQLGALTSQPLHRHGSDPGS

SMILES	hERG current change (%, negative = inhibition) at 1uM [%]
Cc1nc(CN2CCCCC2)cc(=O)[nH]1	13.7
C/C(=C\c1ccccc1)C(=O)NC1CCSC1=O (stereo not drawn)	-4.25
CCO[C@@H]1OC(C(N)=O)=C[C@H](c2coc3ccccc3c2=O)[C@H]1CCCO	7.09
Cc1occc1C(=O)NNC(=S)Nc1cccc([N+](=O)[O-])c1	4.55
Cc1ccc(C(=O)N2CCN(c3ccccc3)CC2)cc1NC(=O)c1ccco1	1.43
C=CCC1C(=O)NC(=S)NC1=O	10.8
O=S(=O)(Cc1ccccc1)N1CCn2c(nc3ccccc32)C1	11.2
CC(C)(C)c1ccc(C(=O)NCC(=O)NNC(=O)c2ccccc2O)cc1	16.7
CCOC(=O)CC1COCCN1C(=O)c1cc(COc2ccc(F)c(F)c2)on1 (stereo not drawn)	-9.67
N=C1/C(=C\c2ccc(SCc3ccco3)o2)C(=O)N=C2SC=NN12	17.3
Cc1cc(OCC(=O)N2CCCN(C)CC2)ccc1Cl	13.6
Nc1nc(-c2ccccn2)nc(N)c1Cc1c(F)cccc1Cl	4.23
CCC(Sc1ncccc1C(=O)OC(C)C)C(=O)N1CCOCC1 (stereo not drawn)	11.5
Cc1ccc(C(=O)Nc2nc3n(n2)C(c2ccccc2)CC(=O)N3)cc1 (stereo not drawn)	10.2
COc1ccc(Cl)cc1NC(=O)CCN1C(=O)C2CC=CCC2C1=O (stereo not drawn)	10.9
CCO[C@H]1OC(C(=O)N2CCN(C)CC2)=C[C@@H](C(C)(C)C)[C@@H]1CCCO	3.29
CCCn1nnnc1NCc1ccccc1F	11.7
CCCNc1c(N)c(=O)c1=O	8.98
COc1cc(NC(=O)c2cccnc2Sc2ccc(C)c(C)c2)cc(OC)c1OC	15.2
Cc1coc2cc3oc(=O)c(CC(=O)N(C)CC(=O)O)c(C)c3cc12	19
CSc1ccc(C2CC(=O)Nc3nc(SC)[nH]c(=O)c32)cc1 (stereo not drawn)	17
CC(C)(C)NC(=O)C1CC2CCCCC2CN1 (stereo not drawn)	10.3
Cn1c2c(c(=O)n(C)c1=O)C(c1ccc(Br)cc1)C(C#N)=C(N)N2 (stereo not drawn)	11.4

SMILES	hERG current change (%, negative = inhibition) at 1uM [%]
CCOc1ccccc1NC(=O)C1CCCN(S(C)(=O)=O)C1 (stereo not drawn)	11
Cc1ccc(Cn2c(=O)cc(C(=O)O)c3ccccc32)cc1	-1.26
COc1cc(S(=O)(=O)NCc2ccc(F)cc2)ccc1-n1cnnn1	-7.05
COc1ccc(OC)c(NC(=O)C2=C(C)Nc3ncnn3C2c2cccs2)c1 (stereo not drawn)	-5.59
Cc1cccc(Nc2nnc(SCc3cc(=O)n4cc(C)ccc4n3)s2)c1	14.3
Cc1ccn2c(=O)c(C(=O)NC3CCCCC3C)c(O)nc2c1 (stereo not drawn)	12
Cc1cnc(C(=O)OCC(=O)NC(=O)c2ccccc2)cn1	19.7
Cc1cccc(NC(=O)CCNS(=O)(=O)c2cccc3nonc23)c1C	2.23
CC(=O)CC(=O)Nc1ccc(C(N)=O)cc1	7.41
COc1c2c(nc3occc13)C(CC=C(C)C)(OC)C(=O)C=C2 (stereo not drawn)	-0.178
CCOc1ccccc1N1CCN(S(=O)(=O)c2ccc3c4c(cccc24)C(=O)N3)CC1	7.24
Cc1nnc(NC(=O)c2c(F)c(F)c(F)c(F)c2F)s1	15.5
CC(=O)Oc1ccc(N2C(=O)c3cccc4c([N+](=O)[O-])ccc(c34)C2=O)cc1	17.5
COC(=O)C1=CN(Cc2ccc(OC)cc2)C=C(C(=O)OC)C1c1ccsc1	15.1
Cc1nnc(SCC(=O)N2CCN(S(=O)(=O)c3ccccc3)CC2)s1	3.67
CNC(=O)CSc1nc(-c2ccccc2)c(-c2ccccc2)[nH]1	3.72
CCc1nnc(NC(=O)CCC(=O)N2CCN(Cc3cc(F)ccc3OC)CC2)s1	8.26
COc1ccccc1NCC(=O)N1CCN(S(=O)(=O)c2ccccc2)CC1	14
CC(=O)Nc1ccc(N(C(=O)c2ccco2)C(C(=O)NC2CCCC2)c2ccncc2)cc1 (stereo not drawn)	13.5
O=C1CCCN1c1nccs1	12.5
O=C(Nc1ccc(F)cc1)C1CC(=O)n2cnnc2N1 (stereo not drawn)	9.45
O=C(O)c1c[nH]c2ccc(S(=O)(=O)N3CCN(c4ccc(F)cc4)CC3)cc2c1=O	-5.04
COc1cc(NC(=O)Cn2nc(Cc3cccnc3)c3ccccc3c2=O)cc(OC)c1OC	9.27

SMILES	hERG current change (%, negative = inhibition) at 1uM [%]
COc1ccc(N2CCN(C(=O)c3ccc4nc(N5CCCCC5)sc4c3)CC2)cc1	9.51
CCN(Cc1ccccc1)Cc1cccc([N+](=O)[O-])c1	3.32
COc1ccc(CN2CC(=O)N(c3ccccc3OC)C2=S)cc1OC	3.69
O=C(Cn1c2ccccc2c2nc3n(c(=O)c21)CCS3)Nc1ccccc1	23.6
CCN(CC)C(=O)CSc1nnc(-c2ccco2)o1	7.92
Cc1ccc(S(=O)(=O)N(C)C)cc1NC(=O)CN1c2cccc3cccc(c23)S1(=O)=O	2.59
COc1ccc(C(=O)Nc2cc(OC)nc(OC)n2)cc1	7.42
O=C(O)C1(c2ccccc2)CCN(S(=O)(=O)c2cccs2)CC1	13.1
C=CCOc1c(CNc2cccc(C(=O)O)c2)cccc1OCC	7.85
O=C(NCC(c1ccco1)N1CCc2ccccc2C1)C(=O)Nc1ccc(F)cc1F (stereo not drawn)	7.45
CCCN(Cc1ccccc1)C(=O)Nc1ccc2c(c1)nnn2C	6.09
CCOc1ccc(NS(=O)(=O)c2cc(NC(=O)CCS(=O)(=O)c3ccc(C)cc3)ccc2OC)cc1	13.8
Cc1ccc(S(=O)(=O)Nc2ccc3c4c(cccc24)CC3)c(C)c1	6.81
CCN1CCN(c2c(Cl)cccc2NC(=O)c2cccs2)CC1	-45.9
CCOC(=O)c1c(NC(=O)CCC(=O)O)sc2c1CCCCC2	18.6
CCOc1ccc(N=c2oc3cc(O)ccc3cc2C(=O)NCC2CCCO2)cc1 (stereo not drawn)	11.5
Cc1ccc(NC(=S)NC(NC(=O)c2ccccc2C)C(Cl)(Cl)Cl)c(C)c1 (stereo not drawn)	21.3
CCOC(=O)C1C(=O)N(C)C2(C)CC1c1cc(OC)ccc1O2 (stereo not drawn)	13.8
COc1ccc(CSc2nnnn2C)cc1[N+](=O)[O-]	-2.66
C/C(=N\NC(=O)c1ccc(Cl)c(Cl)c1)c1cccc(NC(=O)C(C)C)c1	9.8
CCCC(c1nnnn1CC1CCCO1)N1CCN(c2ccccc2)CC1.Cl (stereo not drawn)	14.7
Cc1ccccc1CN(CC(=O)Nc1cccc([N+](=O)[O-])c1)S(=O)(=O)c1ccc(Cl)cc1	8.27
CCNC(=S)NNC(=O)c1cc(CC(C)C)nc2ccccc12	1.63

SMILES	hERG current change (%, negative = inhibition) at 1uM [%]
COc1ccc(Cl)cc1NC(=S)N1CCC(c2ccc(C)cc2)C1 (stereo not drawn)	1.58
CN(CC(=O)NCc1ccccc1Cl)S(=O)(=O)c1cccs1	10.1
CCOC(=O)c1cnc2nc(COc3ccccc3)[nH]n2c1=O	-1.77
CCOCCCn1c(SCC(=O)Nc2ccc(C(N)=O)cc2)nc2ccccc2c1=O	9.22
COc1ccc(NC(=O)Cn2cnc3sc(C)c(S(=O)(=O)N4CCOCC4)c3c2=O)cc1Cl	5.74
O=C(CCN1C(=O)/C(=C\c2ccccc2Cl)SC1=S)N1CCN(c2ccccc2)CC1	10.8
COc1ccc(C(CNC(=O)c2ccco2)N2CCCC2)cc1 (stereo not drawn)	3.46
COC(=O)c1cc(=O)n(Cc2cccs2)c(=NCc2cccs2)s1	-1.68
CCOc1ccc(CCN2C(=O)CCC2(C)C(=O)NC(C)CC)cc1OCC (stereo not drawn)	-2.1
Cc1ccc(S(=O)(=O)NCCc2nnc3ccc(NCCCOC(C)C)nn23)cc1	9.3
Cn1cc(C(N)=O)c2ccccc21	9.33
COc1ccccc1NC(=O)CN1CCN(c2ccccc2OC)CC1	13.7
COc1ccc(CCNC(=O)CC(=O)NCCc2ccc(OC)cc2)cc1	14.2
Cc1c(C(=O)n2cnc3ccccc32)cccc1[N+](=O)[O-]	8.77
N#Cc1ccsc1NC(=O)COC(=O)C1=NNC(=O)CC1	10.5
COc1ccc(N(C(=O)c2ccc(Br)o2)C2C=CS(=O)(=O)C2)c(OC)c1 (stereo not drawn)	7.73
COc1ccc(OC)c(N(C(=O)c2snc(C(N)=O)c2N)C(C(=O)NCc2ccccc2)c2ccc(O)cc2)c1 (stereo not drawn)	-14.5
Cc1cc(-c2ccccc2)nc(N2CCC(C(=O)NC(C)C)CC2)n1	5.49
CCOC(=O)Cn1cnc2c(nnn2-c2ccccc2)c1=O	-3.55
COc1ccc(C(=O)N[C@H](C(=O)Nc2ccc(OC)nc2)C(C)C)cc1	2.05
COc1ccc(CCNC(=O)c2ccc3nc(N4CCCCC4)sc3c2)cc1OC	7.61

From paper PMC4336329 (PLoS ONE, 2015)
